# Measurements taken from publication PMC4336329 (PLoS ONE, 2015).
# The campaign covered roughly 310,000 compounds. About 14,000 (4.5%) showed an effect of 50% or more. Effects have a minus sign here. The list shows a part of the results.
# Target: human ether-à-go-go-related gene (hERG) potassium channel (human, UniProt Q12809)
# Test: primary screen, population patch clamp on CHO cells stably expressing hERG
# 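Further: peak tail current of the secondary pulse compared with the same well before compound.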
# Sequence of human ether-à-go-go-related gene (hERG) potassium channel (Q12809 whole entry, looked up): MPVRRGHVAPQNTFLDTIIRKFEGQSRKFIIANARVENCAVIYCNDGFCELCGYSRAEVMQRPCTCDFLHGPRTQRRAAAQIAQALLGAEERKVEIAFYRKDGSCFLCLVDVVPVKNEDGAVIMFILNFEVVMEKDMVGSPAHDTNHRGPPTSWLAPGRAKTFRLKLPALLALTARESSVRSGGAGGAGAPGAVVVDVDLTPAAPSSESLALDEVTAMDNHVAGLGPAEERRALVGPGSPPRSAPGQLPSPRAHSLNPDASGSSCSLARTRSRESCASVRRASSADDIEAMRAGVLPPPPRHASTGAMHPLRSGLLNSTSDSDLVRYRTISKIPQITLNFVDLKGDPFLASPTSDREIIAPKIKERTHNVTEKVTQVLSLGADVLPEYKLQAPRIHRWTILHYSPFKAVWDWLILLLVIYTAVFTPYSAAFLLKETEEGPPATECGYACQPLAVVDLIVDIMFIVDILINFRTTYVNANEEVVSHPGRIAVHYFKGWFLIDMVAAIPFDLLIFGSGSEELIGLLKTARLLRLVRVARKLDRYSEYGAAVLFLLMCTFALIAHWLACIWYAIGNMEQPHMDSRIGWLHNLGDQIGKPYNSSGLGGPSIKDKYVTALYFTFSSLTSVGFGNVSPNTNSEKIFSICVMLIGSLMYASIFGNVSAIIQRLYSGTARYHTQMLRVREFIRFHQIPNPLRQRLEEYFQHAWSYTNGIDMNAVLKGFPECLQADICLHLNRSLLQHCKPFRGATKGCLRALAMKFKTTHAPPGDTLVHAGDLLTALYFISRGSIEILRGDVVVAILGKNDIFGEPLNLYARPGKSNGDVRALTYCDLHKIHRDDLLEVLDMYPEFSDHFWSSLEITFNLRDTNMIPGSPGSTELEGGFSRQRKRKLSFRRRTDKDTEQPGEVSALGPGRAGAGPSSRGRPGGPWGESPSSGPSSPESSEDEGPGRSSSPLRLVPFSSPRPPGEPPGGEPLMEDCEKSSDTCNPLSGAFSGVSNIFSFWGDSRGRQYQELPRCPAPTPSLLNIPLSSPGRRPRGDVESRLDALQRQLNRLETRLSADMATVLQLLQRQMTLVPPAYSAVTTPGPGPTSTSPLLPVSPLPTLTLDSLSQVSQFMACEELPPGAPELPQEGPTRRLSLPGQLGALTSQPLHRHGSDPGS
row,Structure (SMILES),"hERG current change (%, negative = inhibition) at 10uM [%]"
1,O=C(COc1ccccc1[N+](=O)[O-])N/N=C/c1cccs1,3.25
2,O=C(OCn1nnc2ccccc2c1=O)c1ccc2ncsc2c1,-1.12
3,COc1ccc(-c2csc(-n3ncc(-c4cccs4)c3N)n2)cc1,22.5
4,COc1ccc(N(CC(=O)NC2CCCC2)C(=O)Cn2nnc(-c3ccc(OC)c(OC)c3)n2)cc1,2.66
5,COc1cccc(C(=O)O/N=C(\N)c2ccc([N+](=O)[O-])cc2)c1,17.6
6,Nc1cc2c3c(cccc3c1)C(=O)N(CCN1CCCC1)C2=O,-6.87
7,Cc1ccc(NC(=O)COC(=O)CN2CSCC2=O)cc1C,-2.4
8,Cc1ccc(C(=O)N[C@H](C(=O)OCC(=O)Nc2cccc(S(N)(=O)=O)c2)C(C)C)cc1,-41.7
9,Clc1ccsc1-c1ccnc(-n2cccc2)n1,11.1
10,FC(F)(F)c1ccc(C2[C@H]3CN(Cc4cccnc4)[C@H](c4ccccc4)C34CC2(c2ccccc2)C4)cc1 (some centres unmarked),-2.57
11,Cc1ccc(C(=O)NCCn2c(N)c(C#N)c3nc4ccccc4nc32)cc1,5.37
12,CCOc1c(Br)cc(CNc2ccc3c(c2)OCCO3)cc1OC,5.89
13,CC(C)c1ccc(CN2CCN(C(=O)CSc3nnnn3C3CC3)CC2)cc1,-28.1
14,COc1ccc(N2CCN(C(=O)CN=C3NS(=O)(=O)C(c4ccc(C)cc4)=C3C)CC2)cc1,-5.05
15,Cc1cccc(C)c1-n1c(C)cc(/C=N\Nc2ccc([N+](=O)[O-])cn2)c1C,15.2
16,CCOc1ccccc1-c1nc(SCC(=O)O)n[nH]1,-6.75
17,O=C(O)C1C2C=CC(C3CC23)C1C(=O)N1CCc2ccccc21 (centres unmarked),3.86
18,CNC(=O)C(=O)N/N=C/c1cccnc1,-2.6
19,CCCCN(C(=O)CSCc1c(C)noc1C)c1c(N)n(CCCC)c(=O)[nH]c1=O,13.2
20,N#Cc1ccccc1NC(=O)CN1C(=O)NC2(CCCC2)C1=O,14.7
21,COc1cc(C(=O)NCCc2cn3ccc(C)cc3n2)cc(OC)c1OC,-27
22,Cc1cc(O)c(/C=N/Nc2ccc(Cl)cc2)c(=O)o1,13.6

row,Structure (SMILES),"hERG current change (%, negative = inhibition) at 10uM [%]"
1,CCCCc1nc(SCC(=O)Nc2ccc(S(N)(=O)=O)cc2)n[nH]1,-3.6
2,CCOC(=O)N1CCN(C(=O)C2CCN(S(=O)(=O)c3cc(OC)ccc3OC)CC2)CC1,21.5
3,C=CCNC(=S)N(Cc1ccccc1)Cc1ccccc1,-6.16
4,CCN(CC)CCCN=Cc1c(O)n(-c2ccccc2F)c(=O)[nH]c1=O,18.5
5,O=C(O)CCC(=O)Nc1ccccc1C(=O)NC1CCCCC1,11
6,O=C(CNC(=O)c1cccc(Br)c1)N/N=C/c1cn[nH]c1-c1ccccc1,-30.9
7,Cc1ccc(C(=O)c2c(NC(=O)c3ccccc3C)sc(C)c2C)cc1,-3.58
8,Cc1ccc(N2C(=O)C(NC(=O)c3ccccc3F)(C(F)(F)F)C3=C2CC(C)(C)CC3=O)cc1 (centres unmarked),6.43
9,O=C(Nc1ccccc1N1CCN(c2ccccc2)CC1)C1CCCCC1,-15.9
10,COc1cc(/C=N/OCC(=O)Nc2ccc(OC(F)F)cc2)ccc1OCc1ccccc1,-24.9
11,Cl.OC(CNCc1ccccc1)COCc1ccc(Cl)cc1 (centres unmarked),-50.3
12,COc1ccc(OC)c(C2C=C(C34CC5CC(CC(C5)C3)C4)NC(=S)N2)c1 (centres unmarked),3.77
13,CS(=O)(=O)Nc1ccccc1NS(C)(=O)=O,16.7
14,COC(=O)c1cc(C(=O)OC)n(Cc2ccc(Cl)cc2Cl)n1,-12.3
15,Cc1cc(OCCN2CCCC2)ccc1[N+](=O)[O-].O=C(O)C(=O)O,-9.82
16,CCc1nnc(NC(=O)c2cccc(S(=O)(=O)N(C)c3ccc(OC)cc3)c2)s1,33.6
17,COc1cccc(CN2CC(C(=O)NCCCc3ccc(C)cc3)CCC2=O)c1 (centres unmarked),-28.4
18,COc1ccc(CCNC(=O)c2nn(C)cc2Cl)cc1,-3.6
19,CCCCn1c(=O)[nH]c(=O)c2c(C(=O)OCC)cc(-c3cccs3)nc21,2.87
20,CSc1nc(C)c(CCO)c(=O)[nH]1,7.81
21,CCN1CCN(c2cc(C)c3cc(NC(=S)N(CC)CC)ccc3n2)CC1,-43.9
22,CC(C)[C@H](NC(=O)c1ccccc1)C(=O)Nc1ccc2c(c1)OCO2,6.91
